Assays:
Test in all cases: FP
[1] = molecular target: EGFR-pTyr954
[2] = molecular target: Shc1-pTyr317
[3] = molecular target: EGFR-pTyr1086
[4] = molecular target: VCP-pTyr805-tail7
[5] = molecular target: Shc1-pTyr239

B1: wild-type Src SH2 domain (domain or fragment)
chain: not shown
Question: Which results are given for B1?
Answer: Kd [1]: 13.3 µM; Kd [2]: 2.81 µM; Kd [3]: 10.9 µM; Kd [4]: 9.77 µM; Kd [5]: 1.07 µM
